Assay results published in publication PMC4336329 (PLoS ONE, 2015).
The whole screen tested about 310,000 compounds, of which about 2,200 (0.71%) showed an effect of 50% or more. Effects have a minus sign here. The list shows a part of the results.

molecular target: human ether-à-go-go-related gene (hERG) potassium channel (human, UniProt Q12809); assay: primary screen, population patch clamp on CHO cells stably expressing hERG
Sequence (Q12809 whole entry, looked up): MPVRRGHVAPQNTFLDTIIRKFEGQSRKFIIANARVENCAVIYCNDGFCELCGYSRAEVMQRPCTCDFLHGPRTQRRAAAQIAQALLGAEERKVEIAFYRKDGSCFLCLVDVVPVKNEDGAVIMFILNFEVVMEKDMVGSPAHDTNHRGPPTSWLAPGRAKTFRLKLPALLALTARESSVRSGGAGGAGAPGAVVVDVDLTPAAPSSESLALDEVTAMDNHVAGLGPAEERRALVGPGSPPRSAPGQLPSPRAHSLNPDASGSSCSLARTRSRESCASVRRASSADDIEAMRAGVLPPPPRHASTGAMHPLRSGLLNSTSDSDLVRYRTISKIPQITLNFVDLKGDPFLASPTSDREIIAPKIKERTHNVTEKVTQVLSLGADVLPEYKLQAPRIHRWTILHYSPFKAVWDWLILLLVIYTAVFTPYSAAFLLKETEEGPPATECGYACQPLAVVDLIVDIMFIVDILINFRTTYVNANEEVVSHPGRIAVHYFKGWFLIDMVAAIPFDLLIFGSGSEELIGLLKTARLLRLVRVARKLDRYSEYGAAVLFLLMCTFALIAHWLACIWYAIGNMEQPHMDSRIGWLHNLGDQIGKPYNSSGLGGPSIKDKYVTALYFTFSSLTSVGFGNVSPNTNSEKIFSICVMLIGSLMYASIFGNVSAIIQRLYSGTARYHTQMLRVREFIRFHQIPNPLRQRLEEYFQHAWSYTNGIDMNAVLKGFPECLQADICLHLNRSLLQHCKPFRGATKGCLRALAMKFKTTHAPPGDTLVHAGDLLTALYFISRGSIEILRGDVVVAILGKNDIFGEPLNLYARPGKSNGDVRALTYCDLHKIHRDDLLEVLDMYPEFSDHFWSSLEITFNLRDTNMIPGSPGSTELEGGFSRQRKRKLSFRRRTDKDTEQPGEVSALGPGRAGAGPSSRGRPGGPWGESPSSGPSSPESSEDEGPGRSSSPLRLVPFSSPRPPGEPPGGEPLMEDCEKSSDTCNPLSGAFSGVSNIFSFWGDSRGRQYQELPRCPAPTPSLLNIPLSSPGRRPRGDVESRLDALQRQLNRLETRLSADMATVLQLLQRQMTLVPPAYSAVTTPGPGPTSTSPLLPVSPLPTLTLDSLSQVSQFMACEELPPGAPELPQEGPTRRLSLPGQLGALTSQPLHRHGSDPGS

| Structure (SMILES) | hERG current change (%, negative = inhibition) at 1uM [%] |
| --- | --- |
| COc1ccc(C(=O)NC2CC(C)(C)NC(C)(C)C2)cc1OC | 16.9 |
| C=CCn1c(SCC(=O)Nc2cccnc2Cl)nnc1-c1ccc(Cl)cc1 | 1.44 |
| CCCCNC(=O)c1c(CSc2ccccc2)noc1C(=O)NCc1ccccc1 | 23.2 |
| Cc1cc2nn(-c3ccc(F)cc3)nc2cc1N | 13.5 |
| CC1=C(C(=O)O)N2C(=O)C(NC(=O)Cc3ccccc3)C2SC1 (stereo not shown) | 11.1 |
| CC(C)NC(=O)Cn1nc(C(F)(F)F)c2c1CCC2 | 8.67 |
| Cc1cccc(NC(=O)CN2C(=O)c3ccccc3C2=O)c1C | 1.86 |
| O=C(O[C@H]1[C@H](Oc2ccccc2COC(=O)C2(O)C=CCCC2=O)O[C@H](CO)[C@@H](O)[C@@H]1O)c1ccccc1 (stereo partly shown) | 9.26 |
| Cc1ccccc1NC(=O)C1CC(=O)N(c2ccccc2F)C1 (stereo not shown) | -2.16 |
| COc1cc(OC)c(-c2nc3ccccc3s2)cc1OC | 2.51 |
| COc1ccccc1NC(=O)CN1C(=O)NC(C)(C)C1=O | 12.6 |
| Fc1ccccc1/C=C1\CCCC2=C1NC(=S)NC2c1ccccc1F (stereo not shown) | 15.3 |
| COc1cc(CNCc2ccc(C)cc2)cc(OC)c1OC.O=C(O)C(=O)O | 7.99 |
| CC(=O)N(CN1C(=O)C2CC=CCC2C1=O)c1cccc(Cl)c1 (stereo not shown) | 3.47 |
| CC(=O)O[C@H]1CC(=O)OC(C)(C)C2CC(=O)[C@]3(C)C(CC[C@@](C)([C@@H](O[C@@H]4O[C@H](CO)[C@@H](O)[C@H](O)[C@H]4O)c4ccoc4)[C@@]34O[C@@H]4C(=O)O)[C@]21C (stereo partly shown) | 13.4 |
| COc1ccc(CC(=O)OCC(=O)Nc2c(C)n(C)n(-c3ccccc3)c2=O)cc1OC | 8.25 |
| CCOC(=O)N1CCN(Cc2nc3cc(NC(=O)C(C)C)ccc3n2C)CC1 | 16.1 |
| CCc1nn(CC(=O)N2CCN(c3cc(C)ccc3C)CC2)c(=O)c2cc3occc3n12 | 21 |
| CCOc1ccc2cc(C3CC(c4ccco4)=NN3S(C)(=O)=O)c(=O)[nH]c2c1 (stereo not shown) | 5.74 |
| Cc1cccc(C(=O)OCC(=O)N(C)C(c2ccccc2)c2ccccc2)c1[N+](=O)[O-] | 18.1 |
| COc1ccc(NS(=O)(=O)c2ccc(-c3cnc(C4CC4)o3)cc2)cc1OC | 15.3 |
| CCOc1ccc(S(=O)(=O)N2CCC(C(=O)Nc3cc(S(C)(=O)=O)ccc3Cl)CC2)cc1 | 11.4 |

| Structure (SMILES) | hERG current change (%, negative = inhibition) at 1uM [%] |
| --- | --- |
| CN(CC(=O)Nc1ccc(Cl)cc1)C(=O)COc1ncnc2ccccc12 | 3.55 |
| Cc1ccc(OCC(=O)N(Cc2ccco2)c2c(N)n(Cc3ccccc3)c(=O)[nH]c2=O)cc1C | 2.74 |
| C=CCN1CCN(C(=O)c2oc3ccccc3c2C)CC1 | 12.5 |
| CC(=O)Nc1ccc(S(=O)(=O)NCc2nc(-c3ccccc3Cl)no2)cc1 | 10.7 |
| CC(NC(=O)c1cc2c(cc1Cl)N1CCCCCC1=NS2(=O)=O)c1ccc(S(N)(=O)=O)cc1 (stereo not shown) | 21.2 |
| N#Cc1c(NC(=O)CCCl)sc2c1CCCCC2 | 9.62 |
| Clc1ccc(-c2cc(COc3ccc4ccccc4c3)no2)cc1 | 13.5 |
| CCOc1ccccc1C(=O)NCc1ccco1 | 11.5 |
| CCCCn1c(O)c(C(CC)=NCCN2CCCCC2)c(=O)[nH]c1=O | -25.7 |
| Cc1ccc(C)n1NC(=O)c1ccc(Cl)cc1Cl | -0.279 |
| COc1ccc2c(c1)sc(=N)n2C | 13.1 |
| Cc1ccc(Cl)c(OCC(=O)NN2CCN(C)CC2)c1 | 8.77 |
| CC(C)CCn1c(=O)c(C(=O)NCc2ccc3c(c2)OCO3)c(O)c2ccccc21 | 16 |
| CC1CCN(S(=O)(=O)c2cccc(C(=O)N(Cc3ccccc3)c3ccccn3)c2)CC1 | 8.14 |
| O=C(NCc1ccccn1)c1coc(=O)c(Br)c1 | 13.1 |
| CNC(=O)c1c(NC(=O)c2ccc(S(=O)(=O)N3CCCc4ccccc43)cc2)sc2c1CCN(C)C2 | 5.03 |
| N#C/C(=C\c1ccc(F)c(Cl)c1)S(=O)(=O)c1ccccn1 | 3.4 |
| N#Cc1cnn2c(C(F)(F)F)cc(-c3ccccc3)nc12 | 14.2 |
| CN1CCN(c2ccc(Cl)cc2NC(=O)c2cccc(S(=O)(=O)N(C)C)c2)CC1 | -10 |
| COC(=O)C(N)Cc1ccc(O)cc1.Cl (stereo not shown) | 16.4 |
| O=C(COC(=O)c1cc(=O)[nH]c2ccccc12)NC(=O)c1ccccc1 | 3.88 |
| CCc1cccc(C)c1NC(=O)C1C2CCC(O2)C1C(=O)O (stereo not shown) | 18.6 |

| Structure (SMILES) | hERG current change (%, negative = inhibition) at 1uM [%] |
| --- | --- |
| COc1cc2c(cc1OC)C1(CCCC1)CNC2c1ccc([N+](=O)[O-])cc1.Cl (stereo not shown) | -11.5 |
| COC(=O)c1ccc(C(=O)OC)c(NC(=O)COC(=O)C2CCC(C(C)(C)C)CC2)c1 (stereo not shown) | 12.4 |
| COc1cccc(/C=N/NC(=O)c2oc3nc(-c4ccccc4)cc(-c4ccco4)c3c2N)c1 | 2.73 |
| O=C(O)CCC(=O)Nc1ccc(Cc2ccc(NC(=O)CCC(=O)O)c(O)c2)cc1O | 7.88 |
| CC(C)CCNc1ncnc2c1nnn2Cc1ccccc1Cl | 0.36 |
| CC(C)c1ccc(S(=O)(=O)N2CCN(CC(O)CN3CCOCC3)CC2)cc1 (stereo not shown) | 0.0972 |
| Cc1cc(NC(=O)c2noc3c2CCc2ccccc2-3)no1 | 3.25 |
| CN(C)c1ccnc(C(=O)O)c1 | 19.4 |
| CCOC(=O)CSc1nnc(Cn2c(=O)sc3ccccc32)n1-c1ccccc1C | 3.34 |
| Nc1nc2ccccc2n1/N=C/c1ccc(-c2ccccc2)o1 | -1.77 |
| CC(C)NC(=O)c1onc(CSc2cccc(Cl)c2)c1C(=O)O | 11 |
| CC(=O)c1cccc(NC(=O)c2ccccc2N(Cc2ccccc2)S(C)(=O)=O)c1 | 16.2 |
| CCn1c(SCC(=O)Nc2cc(NC(C)=O)ccc2OC)nnc1-c1ccccn1 | 11.4 |
| O=C(CN1CCN(c2ccc([N+](=O)[O-])cc2)CC1)c1ccccc1 | -9.94 |
| Cc1ccc(C2=CC(C)(c3ccc(C)cc3)Nc3nc(C(F)(F)F)nn32)cc1 (stereo not shown) | 17.6 |
| COc1ccc(/C=N/NC(=O)CC(=O)NCc2cccnc2)c(OC)c1 | 6.08 |
| O=C(Nc1ccccc1C(=O)N1CCCC1)C1COc2ccccc2O1 (stereo not shown) | 7.66 |
| COc1ccc(C(=O)OCC(=O)NC(C)CCc2ccccc2)c(OC)c1 (stereo not shown) | -0.658 |
| COc1ccc(C(C)=O)cc1COC(=O)CCCN1C(=O)c2ccccc2C1=O | 7.94 |
| CC/C(=N\NC(=O)c1ccc(CN(C)S(=O)(=O)c2ccc(C)cc2)cc1)c1ccc(OC(F)F)cc1 | -3.53 |
| COc1ccc(CCNC(=O)CSc2nc3[nH]ncc3c(=O)n2-c2ccccc2OC)cc1OC | 21.9 |
| C/C(=N\NC(=O)c1nnn(-c2nonc2N)c1CN1CCOCC1)c1ccc(CC(C)C)cc1 | 21 |

| Structure (SMILES) | hERG current change (%, negative = inhibition) at 1uM [%] |
| --- | --- |
| O=C(COC(=O)Cc1c[nH]c2ccccc12)NC1CCCCC1 | 17.8 |
| COc1ccccc1CCNC(=O)c1ccc2nc[nH]c2c1 | 10.1 |
| Cc1nn(-c2ccccc2)c(C)c1C(=O)OCC(=O)NC(=O)NC1CCCC1 | 8.88 |
| CCOc1cc(C(=O)NCCC(=O)N2CCC3(CC2)NCCc2[nH]cnc23)cc(OCC)c1OCC | 31.7 |
| O=C(Nc1nnc(-c2ccc(Cl)cc2)o1)c1nc2ccccc2s1 | 9.84 |
| O=[N+]([O-])c1ccc(OCc2n[nH]c(=S)n2-c2ccccc2)cc1 | 5.05 |
| COc1cc2[nH]c(=S)n(C3CC3)c(=O)c2cc1OC | 25.7 |
| COc1ccc(-c2nn(-c3ccccc3)cc2/C=N/NC(=S)NC(C)C)cc1OC | 10.5 |
| Cc1cccc(N2CCN(C(=O)C(Cc3ccccc3)NC(N)=O)CC2)c1C (stereo not shown) | 4.85 |
| Cc1cc(=O)[nH]c(SCC(=O)NC(C)C2CC3CCC2C3)c1C#N (stereo not shown) | 13 |
| CCN(CC)c1ccc(C(=O)OCC(=O)Nc2sccc2C#N)cc1 | 11.7 |
| CCOc1ccc(CCNC(=O)c2cc(-c3ccccc3)c(N3CCOCC3)s2)cc1OCC | 11.2 |
| CC(=O)N1C(=O)c2cccc3cccc(c23)C(=O)N1C(C)=O | 4.19 |
| CCOC(=O)c1c(N)nn(C(C)=O)c1-c1ccccc1 | 14.5 |
| Cn1cnc2c1c(=O)n(Cc1ccccc1)c(=O)n2C | 0.97 |
| Cc1ccc(OCCSc2nnc(C)c(=O)n2N)cc1 | 13.8 |
| NC(=O)c1ccc(NC(=O)COC(=O)c2ccc3c(c2)OCO3)cc1 | 4.12 |
| O=C(COC(=O)CNC(=O)C1CCCCC1)Nc1ccc(Br)cc1Br | 1.93 |
| O=C(Cn1ncc2c1-c1ccccc1OC2)Nc1cccc(Cl)c1 | 9.86 |
